# Reference: PubChem BioAssay (NCATS)
# The shares of active, inactive and inconclusive entries below differ from those in the screen. For some assays here: Potencies of inconclusive entries are left out as doubtful fits. Activity calls are given as the source filed them. Unless noted, the call rests on the fitted dose curve; in most records, active means well fitted curve in the direction sought with a large enough effect; inconclusive means small, poorly fitted or top-dose-only effect, or another doubt; inactive means no such curve, though single readings can be large; an effect the other way counts as inactive or inconclusive.
# Columns and labels:
# [1] = P-glycoprotein substrates identified in KB-3-1 adenocarcinoma cell line, qHTS therapeutic library screen (AID 1346986); further: nearly all actives have a fitted effect of over 60% in size
# Summary of the method: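 Viability read by CellTiter-Glo after 72 h compound exposure in dose-response of KB-3-1 and KB-8-5-11 (P-gp-high) cells. Hits needed AC50 < 10 uM, >50% maximum response and curve class -1.1 to -2.4. Cherry-picks retested ± tariquidar, including pcDNA/MDR-19 HEK-293 pair.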
# [2] = test system: Zika virus NS2B-NS3 protease (unlinked complex); assay: Primary screen GU Rhodamine qHTS for Zika virus inhibitors: Unlinked NS2B-NS3 protease assay (AID 1347159); settings: Recombinant ZIKV NS2B-NS3 protease, Rhodamine110 substrate fluorescence; activity change, negative = inhibition: at 107 µM (top of the series); further: nearly all actives have a fitted effect of over 60% in size; further: potency means the concentration at half of the fitted maximal effect; on activity change, negative = inhibition: on the % scale 0 is the no-effect control and ±100 the full control effect
# Summary of the method: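 In dose–response format, inhibition of unlinked protease (25 nM) was measured with 1.5 microM bis-peptide Rhodamine110 substrate. Aprotinin served as the intraplate control.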
# [3] = target: Cytochrome P450 2D6 (Homo sapiens) (UniProt P10635); assay: Cytochrome P450 family 2 subfamily D member 6 (CYP2D6) small molecule antagonists: luciferase biochemical (cell-free) qHTS assay (AID 1645840; active means well fitted curve in the direction sought with a large enough effect in the repeat runs; inconclusive means weak or mixed curves; inactive means no such curve, though single readings can be large; an effect the other way counts as inactive or inconclusive; further: on the % scale 0 is the no-effect control and ±100 the full control effect; nearly all actives have a fitted effect of over 55% in size)
# Chain of UniProt P10635 (P10635 whole entry, looked up): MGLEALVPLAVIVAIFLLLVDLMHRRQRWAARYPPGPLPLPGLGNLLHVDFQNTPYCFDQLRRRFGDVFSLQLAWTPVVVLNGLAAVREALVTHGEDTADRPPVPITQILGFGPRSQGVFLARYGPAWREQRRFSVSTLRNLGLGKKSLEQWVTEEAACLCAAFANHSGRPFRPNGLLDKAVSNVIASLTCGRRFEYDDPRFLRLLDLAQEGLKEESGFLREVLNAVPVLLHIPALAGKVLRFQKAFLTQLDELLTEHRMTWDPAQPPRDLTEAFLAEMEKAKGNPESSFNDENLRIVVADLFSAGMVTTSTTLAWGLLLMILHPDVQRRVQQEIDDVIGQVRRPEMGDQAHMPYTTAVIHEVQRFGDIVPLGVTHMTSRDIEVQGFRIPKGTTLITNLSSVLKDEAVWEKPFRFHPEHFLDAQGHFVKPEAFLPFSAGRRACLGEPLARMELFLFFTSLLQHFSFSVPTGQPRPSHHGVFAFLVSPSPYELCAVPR
# Summary of the method: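 P450-Glo CYP2D6 system: proluciferin substrate converted by enzyme to luciferin, read by luminescence proportional to activity. Enzyme-substrate mix with compound 10 min at room temperature, then NADPH regeneration 1 h before detection reagent.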
# HaCat = assay: Cytotoxic Profiling of Annotated Libraries Using Quantitative High-Throughput Screening (AID 1296008); settings: Five cell lines viability, CellTiter-Glo ATP luminescence, 48-72 h; max response: hits give low values; further: nearly all actives have a fitted effect of over 60% in size; further: potency means the concentration at half of the fitted maximal effect; on max response: on the % scale 0 is the no-effect control and ±100 the full control effect
# Summary of the method: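 Cytotoxicity was measured as CellTiter-Glo ATP luminescence, read after 10 min at room temperature. Compound treatment of the cells lasted 48 or 72 hr at 37 degrees Celsius in a qHTS format.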
# PA-1 = assay: Primary qHTS to identify gynecologic anti-cancer compounds using libraries of approved drugs and bioactive compounds (AID 1345084); settings: Gynecologic cancer cell panel viability, ATPlite luminescence, 48 h; series mostly up to 57.5 µM; further: nearly all actives have a fitted effect of over 55% in size; further: potency means the concentration at half of the fitted maximal effect; on activity change, negative = cytotoxicity: on the % scale 0 is the no-effect control and ±100 the full control effect
# Summary of the method: (§1)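 In this quantitative HTS, cell killing is estimated from loss of ATP-dependent luciferase light. Cells see five compound concentrations over a 48 h exposure.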
# [4] = Primary qHTS for inhibitors of nuclear receptor binding SET domain protein 2 (NSD2) in an isogenic RCH-ACV NSD2 p.E1099K mutant (9B) (AID 1645876); settings: activity change, negative = viability loss: at 44.9 µM (top of the series) unless noted; further: nearly all actives have a fitted effect of over 70% in size; further: potency means the concentration at half of the fitted maximal effect
# [5] = Primary fluorescence-based thiol-reactive (MSTI) qHTS assay for identification of artifact compounds. (AID 1845221); further: potency means the concentration at half of the fitted maximal effect;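 further: thiol-reactive compounds lower the probe fluorescence signal; nearly all actives have a fitted effect of over 65% in size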
# Summary of the method: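 One-hour, room-temperature, dark incubation of compound with 4 uM MSTI in PBS (pH 7.4, 2% DMSO) precedes a fluorescence read at 525 nm excitation, 598 nm emission; Hill-equation fitting yields concentration-response values.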
# SKOV3 = assay: Primary qHTS to identify gynecologic anti-cancer compounds using libraries of approved drugs and bioactive compounds (AID 1345084); settings: Gynecologic cancer cell panel viability, ATPlite luminescence, 48 h; series mostly up to 57.5 µM; further: nearly all actives have a fitted effect of over 55% in size; further: potency means the concentration at half of the fitted maximal effect; on activity change, negative = cytotoxicity: on the % scale 0 is the no-effect control and ±100 the full control effect
# Summary of the method: as §1
# [6] = Primary qHTS for inhibitors of nuclear receptor binding SET domain protein 2 (NSD2) in an RCH-ACV wild type WT cells (2C) (AID 1645877); settings: activity change, negative = cell killing: at 44.9 µM (top of the series) unless noted; further: potency means the concentration at half of the fitted maximal effect; nearly all actives have a fitted effect of over 70% in size
# [7] = qHTS Assay for Identifying Gametocytocidal Compounds (AID 743244);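 further: on the % scale 0 is the no-effect control and ±100 the full control effect; actives lower the fluorescent signal which means gametocytes are killed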; settings: P. falciparum 3D7 stage III-V gametocytes, alamarBlue, 72 h; max response: hits give low values
# Summary of the method: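 Late gametocytes (III–V), P. falciparum 3D7; 72 h drug, then 24 h alamarBlue; resazurin reduction read by fluorescence.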
# [8] = qHTS of pediatric cancer cell lines to identify multiple opportunities for drug repurposing: Primary screen for SJ-GBM2 cells (AID 1347091);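 further: plate controls were DMSO neutral control for no effect and bortezomib for full effect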
# Summary of the method: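 Cell viability, CellTiter-Glo luminescence; 500-1,000 cells/well, 8- or 11-point titration, 48 h compound exposure at 37 degrees C, 5% CO2. Controls: DMSO neutral, bortezomib 2.3 µM final as positive.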
# [9] = qHTS of pediatric cancer cell lines to identify multiple opportunities for drug repurposing: Primary screen for NB1643 cells (AID 1347099); settings: NB1643 neuroblastoma viability, CellTiter-Glo luminescence, 48 h; activity change, negative = cytotoxic: at 46 µM (top of the series);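 further: plate controls were DMSO neutral control for no effect and bortezomib positive control for full effect; nearly all actives have a fitted effect of over 50% in size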
# Summary of the method: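 Luminescence from CellTiter-Glo served as readout of metabolically active cells after 48 h compound exposure. Titrations: MIPE 11-point, from 0.78 nM; NPC 8-point, from 0.59 nM (final). Concentration-response curves came straight from the primary screen.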
# [10] = Primary qHTS for small molecule stabilizers of the endoplasmic reticulum resident proteome: Secreted ER Calcium Modulated Protein (SERCaMP) assay (AID 1508630); settings: SH-SY5Y GLuc-SERCaMP (Gaussia luciferase released on ER calcium loss) secretion, thapsigargin, luminescence; activity change, negative = inhibition: at 38.4 µM (top of the series) unless noted; further: potency means the concentration at half of the fitted maximal effect
# Summary of the method: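 The SH-SY5Y reporter protocol was run at 3 concentrations up to 38.3 uM (primary) or 11 concentrations (follow-up): 16 h compound, 100 nM thapsigargin for 4 h, then extracellular luciferase luminescence.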
# [11] = target: Cytochrome P450 3A4 (Homo sapiens) (UniProt P08684); assay: Cytochrome P450 family 3 subfamily A member 4 (CYP3A4) small molecule antagonists: luciferase qHTS assay (AID 1645841; active means well fitted curve in the direction sought with a large enough effect in the repeat runs; inconclusive means weak or mixed curves; inactive means no such curve, though single readings can be large; an effect the other way counts as inactive or inconclusive; further: potency means the concentration at half of the fitted maximal effect; nearly all actives have a fitted effect of over 45% in size)
# Chain of UniProt P08684 (P08684 whole entry, looked up): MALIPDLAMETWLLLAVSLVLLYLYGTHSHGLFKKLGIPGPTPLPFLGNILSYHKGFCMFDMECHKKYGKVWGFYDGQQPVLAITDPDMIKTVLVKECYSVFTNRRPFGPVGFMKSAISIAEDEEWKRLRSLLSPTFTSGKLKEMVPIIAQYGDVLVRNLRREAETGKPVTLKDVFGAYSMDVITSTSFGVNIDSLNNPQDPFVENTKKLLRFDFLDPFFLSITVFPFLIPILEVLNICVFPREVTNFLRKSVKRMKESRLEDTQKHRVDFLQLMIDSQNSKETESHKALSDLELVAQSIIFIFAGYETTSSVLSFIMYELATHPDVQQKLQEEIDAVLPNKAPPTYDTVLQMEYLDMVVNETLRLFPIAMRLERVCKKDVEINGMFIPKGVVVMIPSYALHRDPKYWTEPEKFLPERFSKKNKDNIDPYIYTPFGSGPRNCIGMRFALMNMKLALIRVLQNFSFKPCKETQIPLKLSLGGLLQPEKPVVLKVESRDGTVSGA
# Summary of the method: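 Luminescent CYP3A4 activity readout: compounds plus enzyme-substrate mix 10 min at room temperature, reaction started with NADPH regenerating system for 1 h, stopped with detection reagent, read after 20 min. Ketoconazole served as control.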
# [12] = target: Cytochrome P450 2C9 (Homo sapiens) (UniProt P11712); assay: Cytochrome P450 family 2 subfamily C member 9 (CYP2C9) small molecule antagonists: luciferase biochemical (cell-free) qHTS assay (AID 1645842; active means well fitted curve in the direction sought with a large enough effect in the repeat runs; inconclusive means weak or mixed curves; inactive means no such curve, though single readings can be large; an effect the other way counts as inactive or inconclusive; further: potency means the concentration at half of the fitted maximal effect; nearly all actives have a fitted effect of over 55% in size)
# Chain of UniProt P11712 (P11712 whole entry, looked up): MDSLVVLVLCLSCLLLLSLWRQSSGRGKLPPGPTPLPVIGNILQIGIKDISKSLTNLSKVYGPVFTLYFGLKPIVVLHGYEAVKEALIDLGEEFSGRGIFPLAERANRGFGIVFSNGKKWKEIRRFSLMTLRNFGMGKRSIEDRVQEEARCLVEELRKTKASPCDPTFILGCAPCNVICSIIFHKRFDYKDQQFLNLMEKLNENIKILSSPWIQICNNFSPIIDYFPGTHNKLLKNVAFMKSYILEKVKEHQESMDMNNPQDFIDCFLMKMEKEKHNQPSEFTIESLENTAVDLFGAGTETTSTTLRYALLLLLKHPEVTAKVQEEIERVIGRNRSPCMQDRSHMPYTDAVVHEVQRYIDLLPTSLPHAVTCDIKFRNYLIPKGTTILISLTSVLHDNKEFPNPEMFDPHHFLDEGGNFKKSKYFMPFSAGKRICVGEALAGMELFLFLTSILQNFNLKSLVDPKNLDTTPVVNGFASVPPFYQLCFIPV
# Summary of the method: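 P450-Glo CYP2C9 system: proluciferin substrate with enzyme in mix containing 0.4% BSA, 10 min at room temperature, then NADPH regeneration solution added and incubated 1 h at 37C. Detection reagent stopped reaction; luminescence read after 20 min as RLU.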
# [13] = target: Phospholipid hydroperoxide glutathione peroxidase GPX4 (Homo sapiens) (UniProt P36969); assay: Primary qHTS Assay for Inhibitors of Recombinant Selenoprotein Glutathione Peroxidase 4 (GPX4) (AID 1845192); settings: activity change, negative = inhibition: at 50 µM (top of the series) unless noted; further: on the % scale 0 is the no-effect control and ±100 the full control effect; nearly all actives have a fitted effect of over 65% in size
# Chain of UniProt P36969 (P36969 whole entry, looked up): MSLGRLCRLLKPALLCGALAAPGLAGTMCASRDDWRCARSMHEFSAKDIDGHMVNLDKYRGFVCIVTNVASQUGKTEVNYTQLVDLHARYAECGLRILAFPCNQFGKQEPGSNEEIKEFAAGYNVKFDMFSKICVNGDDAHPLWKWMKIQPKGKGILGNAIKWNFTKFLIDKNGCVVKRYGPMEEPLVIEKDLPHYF
# Summary of the method: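 NADPH consumption followed by fluorescence at 340/450 nm, t=0 and after 15 min at room temperature. Reaction started with cumene hydroperoxide (0.5 mM final) after 30 min compound–GPX4 preincubation; final 200 nM GPX4, 100 nM GR, 1 mM GSH, 0.5 mM NADPH.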
# [14] = Drug repurposing screens with cells derived from glioblastoma tumor samples (AID 1345199); settings: GBM patient neurospheres viability, ATP luminescence, 48 h; Potency: tumour line A unless noted; activity, negative = cell killing: at 46 µM (top of the series), tumour line A unless noted; further: potency means the concentration at half of the fitted maximal effect; nearly all actives have a fitted effect of over 40% in size
# Summary of the method: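 Primary testing used CD133+ neurospheres from four GBM patients, seven concentrations, 48 h exposure and ATP-based viability; confirmation added three slower-growing patient lines.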
# [15] = Primary redox qHTS assay for identification of artifact compounds. (AID 1845223); further: potency means the concentration at half of the fitted maximal effect
# Summary of the method: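 Redox-cycling detection via DTT (250 uM final) oxidation coupled to Amplex Red (25 uM)/HRP (250 mU/mL) in HBSS. 15 min preincubation plus 30 min after DTT, room temperature. Ex/Em 525/598 nm; 4-parameter Hill fit against DMSO and 10 uM DA3003.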
# [16] = P-glycoprotein substrates identified in KB-8-5-11 adenocarcinoma cell line, qHTS therapeutic library screen (AID 1346987); settings: activity change, negative = cytotoxicity: at 44.5 µM (top of the series); further: nearly all actives have a fitted effect of over 65% in size
# Summary of the method: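 Compounds are pinned in dose-response onto KB-8-5-11 cells (500 cells/well, colchicine-free medium) and left 72 h at 37 degree C. CellTiter-Glo luminescence then yields AC50 values.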
# [17] = test system: Nanoluciferase (engineered Oplophorus gracilirostris luciferase); assay: Primary Nanoluciferase (NLuc) qHTS assay for identification of artifact compounds. (AID 1845222);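 further: NLuc secreted into diluted conditioned medium of S16 cells; potency means the concentration at half of the fitted maximal effect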
# Summary of the method: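 NLuc from S16 cell medium (1:55) plus test compounds, 15 min, room temperature. Luminescence after Nano-Glo (1:100) addition, 5 min.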
# Tags describe the fitted curve by direction and shape.
smiles,measurement,setting,value
CC(NC(=O)C(O)C(C)C)C(=O)NC1C(=O)N(C)CCc2ccccc21 (stereo unspecified),Potency,[1],inactive
same,Potency,[2],inactive
same,Potency,[3],inactive
same,Potency,HaCat,"inconclusive [inhibitor, single point]"
same,Potency,PA-1,inactive
COc1ccccc1C(=O)Nc1cc2c(cc1N1CCCC1)n(C)c(=O)n2C,Potency,[4],"inconclusive [inhibitor, single point]"
same,Potency,[5],"inconclusive [inhibitor, partial curve, poor fit]"
same,Potency,HaCat,"inconclusive [inhibitor, partial curve, poor fit]"
same,Potency,SKOV3,"inconclusive [cytotoxic, single point]"
CC#CC(=O)N1CCC[C@H]1c1nc(-c2ccc(C(=O)Nc3ccccn3)cc2)c2c(N)nccn12,Potency,[4],"inconclusive [inhibitor, partial curve]"
same,Potency,[6],"inconclusive [inhibitor, partial curve]"
same,Potency,[5],inactive
same,Potency,HaCat,"inconclusive [inhibitor, partial curve, poor fit]"
same,Potency,SKOV3,"inconclusive [cytotoxic, single point]"
CC(=O)CC/C=C(\C)CC/C=C(\C)CC/C=C(\C)CCC=C(C)C,max response,[7],inactive: -1.07%
same,Potency,[8],inactive
same,Potency,[9],inactive
same,Potency,[10],"inconclusive [inhibitor, partial curve, poor fit]"
same,Potency,[11],"inconclusive [falling, single point]"
same,Potency,[12],"inconclusive [inhibitor, partial curve]"
same,Potency,[4],"inconclusive [inhibitor, partial curve, poor fit]"
same,Potency,[6],"inconclusive [inhibitor, single point]"
same,Potency,[13],inactive
same,max response,HaCat,inactive: -9.87%
same,Potency,SKOV3,inactive
same,Potency,[14],"inconclusive [inhibitor, partial curve]"
FC(F)(F)c1cc(C(F)(F)F)c2ccc3nc(-c4nnco4)cn3c2n1,outcome,HaCat,inactive
same,Potency,SKOV3,"inconclusive [rising, single point]"
C=C1C[C@]23C[C@H]1CC[C@H]2[C@]1(C)CC[C@H](O)[C@@](C)(C(=O)O)[C@H]1[C@@H]3C(=O)O,Potency,[4],inactive
same,outcome,HaCat,inactive
same,Potency,SKOV3,inactive
CC(=O)O[C@H]1[C@@H](O)[C@H](O[C@H]2[C@@H]3C=CO[C@@H](O[C@H]4O[C@@H](CO)[C@H](O)[C@@H](O)[C@@H]4O)[C@@H]3[C@@]3(CO)O[C@@H]23)O[C@@H](C)[C@@H]1OC(=O)/C=C/c1ccccc1,Potency,[2],"inconclusive [inhibitor, partial curve]"
same,Potency,[5],active: 7.93 µM
same,Potency,[15],"inconclusive [activator, single point]"
same,max response,HaCat,inactive: -2.99%
same,Potency,SKOV3,inactive
CC1=CC2=C(C)C(=O)[C@](C)(O)[C@H](O)C2=CO1,Potency,[16],inactive
same,Potency,[5],"inconclusive [inhibitor, partial curve]"
same,outcome,HaCat,inactive
same,Potency,SKOV3,inactive
CC(=O)OC[C@@]12C(=O)C[C@@H](C)[C@]3(C[C@@H](c4ccoc4)O[C@H]3OC(C)=O)[C@H]1CCC[C@]21CO1,Potency,[6],"inconclusive [inhibitor, partial curve, poor fit]"
same,Potency,[15],"inconclusive [activator, partial curve]"
same,Potency,HaCat,"inconclusive [inhibitor, full curve]"
same,Potency,SKOV3,inactive
CC(C)C(CO)Nc1nc(Nc2ccc(C(=O)O)c(Cl)c2)c2ncn(C(C)C)c2n1 (stereo unspecified),Potency,[11],"inconclusive [falling, single point]"
same,Potency,[12],"inconclusive [inhibitor, single point]"
same,Potency,[13],inactive
same,Potency,[17],"inconclusive [inhibitor, partial curve]"
same,Potency,[15],"inconclusive [activator, partial curve, poor fit]"
same,Potency,HaCat,"inconclusive [inhibitor, single point]"
same,Potency,PA-1,inactive
CC1(C)CCC2(C(=O)OC3OC(CO)C(O)C(O)C3O)CCC3(C)C(=CCC4C5(C)CCC(O)C(C)(C(=O)O)C5CCC43C)C2C1O (stereo unspecified),Potency,[2],"inconclusive [inhibitor, single point]"
same,Potency,[4],inactive
same,Potency,[15],"inconclusive [activator, partial curve, poor fit]"
same,Potency,HaCat,"inconclusive [inhibitor, single point]"
same,Potency,SKOV3,"inconclusive [rising, single point]"
